{"source": "patent US20240392013A1", "about": "“IL1RAP ANTIBODIES AND USES THEREOF” (STELEXIS THERAPEUTICS, LLC, priority 2021, published 2024)", "molecules": {"B1": {"name": "74804_17E20A: anti-IL1RAP mAb; VH SEQ ID NO:17, VL SEQ ID NO:32, κ light chain (antibody, V domains shown)", "VH": "EVQLVQSGAEVKKPGESLKISCKGSGYSFTSYWIGWVRQMPGKGLEWMGIIWPGDSDTRYSPSFQGQVTISADKSVNTAYLQWISLKASDTAIYYCARSSGGTAMDVWGQGTTVTVSS", "VL": "[about 100 residues not given here]YCMQGLQTQWTFGQGTRVEIK", "modifications": "74804_17E20A VH; 74804_17E20A VL"}}, "key": {"[1]": {"test_system": "cyIL1RAP", "experiment": "Kinetics of IL1RAP mAbs by Octet, cynomolgus IL1RAP", "assay_type": "binding", "protocol": "(§1) Antibodies were diluted in kinetics buffer (0.1% BSA, 0.02% Tween-20 and 0.05% NaN3 in PBS) and loaded onto 16 channel anti-mouse IgG Fc capture sensors (AMC, Cat #2001073; Sartorius, Göttingen, Germany). Human, huIL1RAP-His (Sino Biological, lot: MB08MA1301), and monkey, cyIL1RAP-His (Lake Pharma, NY, USA; lot:16205819371) proteins were titrated starting from the highest concentration of 100 nM and followed by 50 nM and 25 nM. Purified antibodies were loaded at 5 μg/ml in kinetics buffer. The experimental parameters selected to determine the kinetic constants were Baseline for 60 s, Loading of antibody to sensor for 180 s, Association of analyte to antibody for 120 s, Dissociation for 1200 s and Regeneration in 10 mM Glycine pH 1.7 for 4×30 s.\n(§2) Regeneration cycle tracking was selected for 12 cycles. Binding to human and cynomolgus IL1RAP was measured and KD (M) kinetics were calculated. Also, the disassociation rate (Kdis) (1/s) and association rate (Kon) (1/Ms) kinetics were calculated (data not shown)."}, "[2]": {"test_system": "IL1-induced NFκB activity", "experiment": "HEK-BlueIL1β NFκB Reporter Assay", "assay_type": "cell-based", "conditions": "nM range, read-out: IC50, inhibition of IL1-induced NFκB activity", "protocol": "The HEK-Blue IL1β (Invivogen, Cat #hkb-il1b) cell line was used to monitor NFκB activity upon stimulation with IL1β cytokine. In this cell line the secreted embryonic alkaline phosphatase reporter gene (SEAP) is inducibly expressed under the control of IFN-β minimal promoter fused to NFκB/AP-1. Specificity to IL1β cytokine was achieved by blockage of TNF-α response. The cells were maintained in the presence of hygromycin (200 μg/ml) and zeocin (100 μg/ml).\nFor the functional assay, cells were plated at a density of 5×10^4 cells/well in 96-well plates. Cells were treated with each antibody at the highest concentration of 200 μg/ml followed by seven serial 1:3 dilutions and incubated for 45 minutes at 37° C./5% CO2 in humified incubator. Cells were then stimulated with IL1β ([…]) and incubated overnight at 37° C./5% CO2 in humified incubator. Every treatment was conducted in triplicates. Following, supernatants from each well were mixed with Quanti-Blue substrate (Invivogen, CA USA; Cat #rep-qb1) according to manufacturer's recommendations and secreted SEAP was measured using spectrophotometer at 650 nm."}, "[3]": {"test_system": "IL33-induced NFκB activity", "experiment": "HEK-BlueIL33 NFκB Reporter Assay", "assay_type": "cell-based, human", "conditions": "nM range, read-out: IC50, inhibition of IL33-induced NFκB activity", "text": "HEK-Blue IL33 (Invivogen, Cat #hkb-hil33) cell line was used to monitor NFκB activity upon stimulation with IL33 cytokine. The secreted embryonic alkaline phosphatase reporter gene (SEAP) is inducible expressed under the control of IFN-β minimal promoter fused to NFκB/AP-1. HEK-BlueIL33 cells were also generated upon stable transfection with human IL1RL1 (ST2) gene. Specificity to IL33 cytokine was achieved by blockage of TNF-α and IL1 response. Cells are maintained in the presence of hygromycin (200 μg/ml), zeocin (100 μg/ml) and blasticidin (10 μg/ml).\nFor the functional assay, cells were plated at a density of 5×10^4 cells/well in 96-well plates. Cells were treated with each antibody at the highest concentration of 200 μg/ml followed by seven serial 1:3 dilutions and incubated for 45 minutes at 37° C./5% CO^2 in humified incubator. Cells were then stimulated with IL33 (12 μM) and incubated overnight at 37° C./5% CO2 in humified incubator. Every treatment was conducted in triplicates. Following, supernatants from each well were mixed with Quanti-Blue substrate (Invivogen, Cat #rep-qb1) according to manufacturer's recommendations and secreted SEAP was measured using spectrophotometer at 650 nm."}, "[4]": {"target": "T1, hIL1RAP (Homo sapiens, UniProt Q9NPH3)", "T1 sequence (Q9NPH3 21-367 limits assumed)": "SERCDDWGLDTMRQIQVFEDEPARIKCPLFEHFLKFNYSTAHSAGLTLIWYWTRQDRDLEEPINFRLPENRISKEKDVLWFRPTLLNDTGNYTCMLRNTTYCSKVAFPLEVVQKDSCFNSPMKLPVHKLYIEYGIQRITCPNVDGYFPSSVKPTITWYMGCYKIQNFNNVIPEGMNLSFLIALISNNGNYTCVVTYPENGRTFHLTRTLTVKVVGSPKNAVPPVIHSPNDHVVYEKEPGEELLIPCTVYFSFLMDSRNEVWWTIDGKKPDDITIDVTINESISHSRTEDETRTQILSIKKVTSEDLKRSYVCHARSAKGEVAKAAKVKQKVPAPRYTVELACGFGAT", "experiment": "Kinetics of IL1RAP mAbs by Octet, human IL1RAP", "assay_type": "binding", "set-up": "extracellular domain His-tagged, Cat #10121-H08H; His; purchased Sino Biological lot MB08MA1301 (catalogue number not given)", "protocol": "as §1, §2"}}}
{"molecule": "B1", "values": [{"measurement": "cyIL1RAP kdis(1/s)", "setting": "[1]", "result": 0.000259, "unit": "s⁻¹"}, {"measurement": "cyIL1RAP kon(1/Ms)", "setting": "[1]", "result": 350800, "unit": "M⁻¹ s⁻¹"}, {"measurement": "IC50", "setting": "[2]", "result": 0.819, "unit": "nM"}, {"measurement": "IC50", "setting": "[3]", "result": 4.82, "unit": "nM"}, {"measurement": "hIL1RAP kdis(1/s)", "setting": "[4]", "result": 0.000348, "unit": "s⁻¹"}, {"measurement": "hIL1RAP kon(1/Ms)", "setting": "[4]", "result": 419500, "unit": "M⁻¹ s⁻¹"}]}
